Laboratory results taken from PubChem BioAssay (Tox21).
Inconclusive results, whose numbers are uncertain, are shown with a selection of clear calls. For some assays here: Potencies beside an inconclusive call are fits to weak or partial responses and may not hold up. Calls of active or inactive are those of the source. Unless noted, calls come from the whole dose curve; as a rule, active = well fitted curve in the direction sought with a large enough effect in the repeat runs; inconclusive = weak or mixed curves; inactive = no such curve, though single readings can be large; an effect the other way counts as inactive or inconclusive.

Assays:
[1] = qHTS assay to identify small molecule that activate the aryl hydrocarbon receptor (AhR) signaling pathway - cell viability counter screen (AID 743086); note: nearly all actives have a fitted effect of over 45% in size
Procedure, shortened: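 HepG2-AhR-luc (HG2L7.5c1) cells, 4000/well, treated 24 h at 37 C with compound; viability measured as CellTiter-Fluor fluorescence after 30 min in the same wells as the luciferase read.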

[2] = biological target: Peroxisome proliferator-activated receptor gamma (Homo sapiens) (UniProt P37231); experiment: qHTS assay to identify small molecule agonists of the peroxisome proliferator-activated receptor gamma (PPARg) signaling pathway (AID 743094; active = well fitted activation curve with a large enough effect in the signal ratio in the repeat runs, not every such curve was filed as active; inconclusive = weak or mixed curves, or effect the other way; inactive = no such curve, though single readings can be large or run the other way; the % refers to the signal ratio; for activation: % is set by controls: 0 for no effect and ±100 for the full control effect); settings: HEK293H PPARg-UAS-bla, beta-lactamase FRET ratio, 17 h; activation: at 57 µM (top of the series) unless noted
Procedure, shortened: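 Following 5 h plating at 37C, PPARg-bla HEK293H cells receive compound or DMSO for 17 h; fluorescence intensity is recorded after LiveBLAzer B/G loading for 1 h at room temperature.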

[3] = biological target: Peroxisome proliferator-activated receptor gamma (Homo sapiens) (UniProt P37231); experiment: qHTS assay to identify small molecule antagonists of the peroxisome proliferator-activated receptor gamma (PPARg) signaling pathway (AID 743191; calls by dose curve; note: nearly all actives have a fitted effect of over 30% in size; for ratio activity, negative = inhibition: % is set by controls: 0 for no effect and ±100 for the full control effect); settings: HEK293H PPARg-UAS-bla, beta-lactamase ratio, antagonist, 17 h
Procedure, shortened: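 GeneBLAzer PPARg UAS-bla HEK293H cells, 5 h post-plating, exposed to compounds 17 h at 37C. LiveBLAzer B/G FRET substrate added for 1 h at room temperature; beta-lactamase reporter read by fluorescence intensity.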

[4] = qHTS assay to identify small molecule antagonists of the peroxisome proliferator-activated receptor gamma (PPARg) signaling pathway - cell viability counter screen (AID 743194); settings: PPARg-bla HEK293H viability, CellTiter-Glo luminescence, 17 h, co-treated with 50 nM rosiglitazone; activity change, negative = cytotoxicity: at 62.6 µM (top of the series) unless noted; note: nearly all actives have a fitted effect of over 55% in size
Procedure, shortened: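 Cytotoxicity counter screen in PPARg-bla HEK293H cells, same wells as reporter assay. Compounds plus 50 nM rosiglitazone (final) for 17 h at 37 C, then viability read by CellTiter-Glo luminescence.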

[5] = qHTS assay for small molecule agonists of the antioxidant response element (ARE) signaling pathway (AID 743202; active = well fitted activation curve with a large enough effect in the signal ratio in the repeat runs, not every such curve was filed as active; inconclusive = weak or mixed curves, or effect the other way; inactive = no such curve, though single readings can be large or run the other way; the % refers to the signal ratio); settings: HepG2 ARE-bla reporter, beta-lactamase FRET, 16 h; activation: at 73.3 µM (top of the series) unless noted
Procedure, shortened: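 Agonist mode reporter screen: HepG2 cells with ARE-controlled beta-lactamase are incubated with test compounds for 16 h at 37 C, and beta-lactamase activity is measured as fluorescence of cleaved B/G FRET substrate.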

[6] = qHTS assay for small molecule activators of the heat shock response signaling pathway - cell viability counter screen (AID 743209); settings: HSE-bla HeLa viability, CellTiter-Glo luminescence, 5 h; activity change, negative = cytotoxicity: at 62.6 µM (top of the series) unless noted; note: nearly all actives have a fitted effect of over 50% in size
Procedure, shortened: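 Counter screen for cytotoxicity in HeLa HSE-bla reporter cells. Treatment was 5 h at 37 C; viability was detected by luminescent ATP assay (CellTiter-Glo) in the same wells as the beta-lactamase read.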

[7] = qHTS assay for small molecule activators of the heat shock response signaling pathway (AID 743210; active = well fitted activation curve with a large enough effect in the signal ratio in the repeat runs, with a control signal flat, not every such curve was filed as active; inconclusive = weak or mixed curves; the % refers to the signal ratio); settings: HeLa HSE-bla reporter, beta-lactamase ratio, 5 h; activation: at 62.6 µM (top of the series)
Procedure, shortened: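 Quantitative high-throughput format using an engineered HeLa line in which heat shock response elements drive beta-lactamase; after 5 h with compound, cells received a B/G FRET substrate and fluorescence was read.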

[8] = qHTS assay to identify small molecule agonists of the peroxisome proliferator-activated receptor delta (PPARd) signaling pathway - cell viability counter screen (AID 743211); settings: PPARd-bla HEK293H viability, CellTiter-Glo luminescence, 17 h; activity change, negative = cytotoxicity: at 62.6 µM (top of the series); note: nearly all actives have a fitted effect of over 55% in size
Procedure, shortened: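 Tox21 library compounds, delivered in DMSO, were incubated 17 h with PPARd-bla HEK293H cells; cytotoxicity was taken from CellTiter-Glo luminescence read 30 min after reagent addition.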

[9] = biological target: Peroxisome proliferator-activated receptor delta (Homo sapiens) (UniProt Q03181); experiment: qHTS assay to identify small molecule agonists of the peroxisome proliferator-activated receptor delta (PPARd) signaling pathway (AID 743212; calls by dose curve); settings: HEK293H PPARd-UAS-bla, beta-lactamase FRET ratio, 17 h; activation: at 62.6 µM (top of the series) unless noted
Procedure, shortened: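 Quantitative high-throughput agonist screen in a HEK293H beta-lactamase reporter line under UAS control. Compounds in DMSO, at 37 C. Fluorescence read after 2 h with FRET substrate at room temperature.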

[10] = qHTS assay to identify small molecule antagonists of the peroxisome proliferator-activated receptor delta (PPARd) signaling pathway - cell viability counter screen (AID 743213); settings: PPARd-bla HEK293H viability, CellTiter-Glo luminescence, 17 h; viability change, negative = cytotoxic: at 62 µM (top of the series) unless noted; note: nearly all actives have a fitted effect of over 50% in size
Procedure, shortened: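 HEK293H cells with the PPARd UAS-bla reporter, co-treated 17 h at 37 C with compounds and L165041 (300 nM final), were lysed with CellTiter-Glo. Luminescence indicated viable cell content.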

[11] = biological target: Peroxisome proliferator-activated receptor delta (Homo sapiens) (UniProt Q03181); experiment: qHTS assay to identify small molecule antagonists of the peroxisome proliferator-activated receptor delta (PPARd) signaling pathway (AID 743215; active = well fitted inhibition curve with a large enough effect in the signal ratio in the repeat runs, not every such curve was filed as active; inconclusive = weak or mixed curves, or effect the other way; inactive = no such curve, though single readings can be large or run the other way; the % refers to the signal ratio;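 note: cells stimulated with agonist L165041 at 300 nM final during compound exposure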); settings: HEK293H PPARd-UAS-bla, beta-lactamase FRET ratio, antagonist, 17 h; ratio activity, negative = inhibition: at 62 µM (top of the series) unless noted
Procedure, shortened: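 With L165041 present at 300 nM final, compounds were incubated 17 h at 37 C on PPARd UAS-bla HEK293H cells. A FRET-based beta-lactamase substrate was then applied for 2 h at room temperature and fluorescence intensity recorded.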

[12] = biological target: Bile acid receptor (Homo sapiens) (UniProt Q96RI1); experiment: qHTS assay to identify small molecule antagonists of the farnesoid-X-receptor (FXR) signaling pathway (AID 743217; active = well fitted inhibition curve with a large enough effect in the signal ratio in the repeat runs, not every such curve was filed as active; inconclusive = weak or mixed curves, or effect the other way; inactive = no such curve, though single readings can be large or run the other way; the % refers to the signal ratio); settings: HEK293T FXR-UAS-bla, beta-lactamase ratio, CDCA-stimulated, 16 h; activity change, negative = inhibition: at 62.6 µM (top of the series) unless noted
Procedure, shortened: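 In this cell-based antagonist screen, inhibition of CDCA-driven (50 uM final) UAS-beta-lactamase expression in HEK 293T cells was measured by FRET fluorescence following 16 h compound exposure at 37 °C.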

[13] = qHTS assay to identify small molecule agonists of the farnesoid-X-receptor (FXR) signaling pathway - cell viability counter screen (AID 743218); settings: FXR-bla HEK293T viability, CellTiter-Glo luminescence, 16 h; viability change, negative = cytotoxic: at 62.6 µM (top of the series) unless noted; note: nearly all actives have a fitted effect of over 45% in size
Procedure, shortened: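 After 16 h at 37 C with test compounds, FXR-bla HEK 293T cells were given LiveBLAzer B/G substrate for 2 h at RT and then CellTiter-Glo; luminescence was taken after 30 min.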

[14] = biological target: Bile acid receptor (Homo sapiens) (UniProt Q96RI1); experiment: qHTS assay to identify small molecule agonists of the farnesoid-X-receptor (FXR) signaling pathway (AID 743220; active = well fitted activation curve with a large enough effect in the signal ratio in the repeat runs, not every such curve was filed as active; inconclusive = weak or mixed curves, or effect the other way; the % refers to the signal ratio); settings: HEK293T FXR-UAS-bla, beta-lactamase FRET ratio, 16 h; activation: at 62.6 µM (top of the series) unless noted
Procedure, shortened: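 Beta-lactamase reporter under UAS control in GeneBLAzer FXR HEK 293T cells (5000/well) measured with LiveBLAzer FRET substrate after 2 h at room temperature. Compound exposure lasted 16 h at 37C.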

[15] = qHTS assay to identify small molecule antagonists of the farnesoid-X-receptor (FXR) signaling pathway - cell viability counter screen (AID 743221; active = well fitted cell-killing curve with a large enough effect in the repeat runs, not every such curve was filed as active; inconclusive = weak or mixed curves, or effect the other way; inactive = no such curve, though single readings can be large or run the other way; note: nearly all actives have a fitted effect of over 50% in size); settings: FXR-bla HEK293T viability, CellTiter-Glo luminescence, 16 h; activity change, negative = cytotoxicity: at 62.6 µM (top of the series)
Procedure, shortened: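 Cytotoxicity is taken from ATP luminescence (CellTiter-Glo, 30 min, room temperature) in FXR-bla HEK 293T cells previously incubated 16 h at 37 C with compound and chenodeoxycholic acid at 50 uM final.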

[16] = biological target: Vitamin D3 receptor (Homo sapiens) (UniProt P11473); experiment: qHTS assay to identify small molecule agonists of the vitamin D receptor (VDR) signaling pathway (AID 743222; calls by dose curve); settings: HEK293T VDR-UAS-bla, beta-lactamase FRET ratio, 16 h; activation: at 63.5 µM (top of the series) unless noted
Procedure, shortened: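 VDR-bla cells were seeded, left 4 h, treated with compounds in DMSO for 16 h, incubated 2 h at RT with B/G FRET substrate, and read for fluorescence.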

[17] = biological target: Vitamin D3 receptor (Homo sapiens) (UniProt P11473); experiment: qHTS assay to identify small molecule antagonists of the vitamin D receptor (VDR) signaling pathway (AID 743223; active = well fitted inhibition curve with a large enough effect in the signal ratio in the repeat runs, not every such curve was filed as active; inconclusive = weak or mixed curves, or effect the other way; inactive = no such curve, though single readings can be large or run the other way; the % refers to the signal ratio; for activity change, negative = inhibition: % is set by controls: 0 for no effect and ±100 for the full control effect); settings: VDR-UAS-bla HEK293T, beta-lactamase FRET ratio, 16 h; activity change, negative = inhibition: at 61 µM (top of the series) unless noted
Procedure, shortened: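 Quantitative HTS in VDR-bla reporter cells stimulated with 1alpha,25-dihydroxyvitamin D3, 3 nM final. Compound exposure 16 h, 37C, 5% CO2. Read-out: beta-lactamase FRET substrate fluorescence, 2 h RT.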

[18] = qHTS assay to identify small molecule antagonists of the vitamin D receptor (VDR) signaling pathway - cell viability counter screen (AID 743225); settings: VDR-bla HEK293T viability, CellTiter-Glo luminescence, 16 h; viability change, negative = cytotoxic: at 61 µM (top of the series) unless noted; note: nearly all actives have a fitted effect of over 50% in size; for viability change, negative = cytotoxic: % is set by controls: 0 for no effect and ±100 for the full control effect
Procedure, shortened: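 Same-well multiplex: following 16 h treatment of HEK 293T cells carrying a UAS-driven beta-lactamase reporter with compound and agonist (3 nM final), and a 2 h FRET substrate step, CellTiter-Glo was added and luminescence read after 30 min.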

[19] = ratio activity, negative = inhibition: at 62.6 µM (top of the series) unless noted
Potency is the fitted concentration of half-maximal effect; tags give direction and shape of the fitted curve or compound fluorescence and quenching.

Sequence of UniProt Q96RI1 (Q96RI1 whole entry, looked up): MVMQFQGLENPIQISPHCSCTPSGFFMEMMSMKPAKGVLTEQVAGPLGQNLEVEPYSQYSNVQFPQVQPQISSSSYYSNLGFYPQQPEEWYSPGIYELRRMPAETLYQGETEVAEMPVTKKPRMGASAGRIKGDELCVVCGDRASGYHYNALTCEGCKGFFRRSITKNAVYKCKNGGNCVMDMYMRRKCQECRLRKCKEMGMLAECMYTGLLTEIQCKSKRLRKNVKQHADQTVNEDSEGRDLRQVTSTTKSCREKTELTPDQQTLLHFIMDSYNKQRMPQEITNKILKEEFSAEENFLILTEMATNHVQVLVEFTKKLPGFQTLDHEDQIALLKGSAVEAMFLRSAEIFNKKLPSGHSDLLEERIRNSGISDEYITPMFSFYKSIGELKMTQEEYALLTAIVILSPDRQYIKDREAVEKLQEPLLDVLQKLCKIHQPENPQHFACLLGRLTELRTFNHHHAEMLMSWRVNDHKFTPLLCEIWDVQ
Sequence of UniProt P11473 (P11473 whole entry, looked up): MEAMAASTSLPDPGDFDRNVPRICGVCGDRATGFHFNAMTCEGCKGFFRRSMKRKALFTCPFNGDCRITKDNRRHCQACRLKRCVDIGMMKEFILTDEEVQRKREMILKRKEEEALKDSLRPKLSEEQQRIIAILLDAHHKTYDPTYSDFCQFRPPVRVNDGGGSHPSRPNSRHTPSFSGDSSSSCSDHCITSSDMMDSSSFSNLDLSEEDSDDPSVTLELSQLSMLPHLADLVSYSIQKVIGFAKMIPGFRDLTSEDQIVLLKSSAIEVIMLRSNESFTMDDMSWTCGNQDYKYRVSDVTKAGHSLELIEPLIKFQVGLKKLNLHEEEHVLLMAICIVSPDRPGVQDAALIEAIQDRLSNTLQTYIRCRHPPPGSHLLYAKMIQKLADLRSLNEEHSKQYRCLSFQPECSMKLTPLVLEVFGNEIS
Sequence of UniProt P37231 (P37231 whole entry, looked up): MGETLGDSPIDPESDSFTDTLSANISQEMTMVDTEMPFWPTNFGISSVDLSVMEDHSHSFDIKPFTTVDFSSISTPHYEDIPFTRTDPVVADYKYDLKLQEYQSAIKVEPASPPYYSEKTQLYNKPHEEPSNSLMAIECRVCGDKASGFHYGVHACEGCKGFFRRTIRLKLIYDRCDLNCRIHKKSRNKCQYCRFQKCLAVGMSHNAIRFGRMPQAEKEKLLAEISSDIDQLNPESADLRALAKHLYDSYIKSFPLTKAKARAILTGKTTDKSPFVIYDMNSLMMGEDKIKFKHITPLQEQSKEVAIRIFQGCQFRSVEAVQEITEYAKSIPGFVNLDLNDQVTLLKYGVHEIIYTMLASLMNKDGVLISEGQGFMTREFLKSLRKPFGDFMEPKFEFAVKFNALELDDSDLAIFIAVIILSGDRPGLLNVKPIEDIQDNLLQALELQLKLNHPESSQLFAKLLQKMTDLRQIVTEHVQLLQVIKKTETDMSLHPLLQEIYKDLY
Sequence of UniProt Q03181 (Q03181 whole entry, looked up): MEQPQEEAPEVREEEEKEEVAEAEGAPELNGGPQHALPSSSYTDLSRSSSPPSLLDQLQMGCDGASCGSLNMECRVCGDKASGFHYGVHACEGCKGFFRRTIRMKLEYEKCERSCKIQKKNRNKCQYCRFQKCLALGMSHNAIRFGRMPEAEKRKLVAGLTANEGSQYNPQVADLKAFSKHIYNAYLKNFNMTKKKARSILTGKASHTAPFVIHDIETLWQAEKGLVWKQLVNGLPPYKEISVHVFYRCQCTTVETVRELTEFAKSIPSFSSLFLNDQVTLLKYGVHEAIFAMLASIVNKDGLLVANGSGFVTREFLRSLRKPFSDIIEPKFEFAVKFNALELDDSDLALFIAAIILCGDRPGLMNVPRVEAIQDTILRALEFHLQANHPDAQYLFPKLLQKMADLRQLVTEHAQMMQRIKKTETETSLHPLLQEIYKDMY

Cc1cc(O)c(C(C)(C)C)cc1Sc1cc(C(C)(C)C)c(O)cc1C
inconclusive: Potency [1] 76.8 µM | Potency [2] 38.8 µM [falling, partial curve] | Potency [3, 19] 38.8 µM [cytotoxic, partial curve] | Potency [5] 15.3 µM [falling, full curve] | Potency [7] 20.6 µM | Potency [9] 12.3 µM [falling, full curve] | Potency [11] 24.5 µM [cytotoxic, full curve] | Potency [12] 12.3 µM [cytotoxic] | Potency [14] 13.8 µM [falling, full curve] | Potency [16] 13.8 µM | Potency [17] 19.5 µM [rising, single point]
active: Potency [4] 10.9 µM | Potency [6] 10.9 µM | Potency [8] 3.88 µM | Potency [10] 3.46 µM | Potency [13] 8.69 µM | Potency [15] 9.75 µM | Potency [18] 7.75 µM

COC(=O)C1=C(C)NC(C)=C(C(=O)OC)C1c1ccccc1[N+](=O)[O-]
55 µM (inconclusive) and inactive: Potency [17]
inactive: ratio activity, negative = inhibition ([3]; at 62.6 µM (top of the series)) 7.34% | Potency [18]
inconclusive: Potency [1] 54.5 µM [falling, partial curve] | activation [2] -13.7% | ratio activity, negative = inhibition [3, 19] -10.1% | Potency [5] 77 µM [falling, single point] | Potency [7] 24.6 µM | Potency [9] 55 µM [single point] | Potency [10] 13.8 µM [cytotoxic, partial curve] | Potency [11] 61.7 µM [rising, single point] | Potency [12] 12.3 µM [inhibitor, partial curve, poor fit] | Potency [13] 30.9 µM [cytotoxic, partial curve, poor fit] | Potency [16] 55 µM [rising, single point]
